Data published in US20170204445A1, “IN VIVO SITE-SPECIFIC PROTEIN TAGGING USING ENGINEERED SORTASE VARIANTS” (priority 2016, published 2017).

Target: HER2 on SK-BR-3 cells (Homo sapiens, UniProt P04626)
Assay: Flow cytometry analysis of labeled nanobody binding
Conditions: SK-BR-3 breast cancer cells, 100 nM labeled probe, blocked with unlabeled Trx-5f7

B1: Trx-5f7: thioredoxin-fused nanobody 5f7 conjugated to Azp in vivo and labeled on-column with Cy3-DBCO; HER2-binding imaging agent (conjugate)
VHH: [… about 100 residues …]GSGSGHMHHHHHHSSGLVPRGSGMKETAAAKFERQHMDSPDLGTDDDDKSGMEVQLVESGGGLVQAGGSLRLSCAASGITFSINTMGWYRQAPGKQRELVALIISIGDTYYADSVKGRFTISRDNAKNTVYLQMNSLKPEDTAVYYCKRFRTAAQGTDYWGQGTQVTVSSHHHHHHLPETGG
- detection of HER2 expression: effective in detecting HER2 expression
